Data as given in US12366572B2, “Activation of bioluminescence by structural complementation” (Promega Corporation, priority 2013, dated 2025).

Biological target: NLpep53 (Oplophorus gracilirostris, UniProt Q9GV45)
Assay: Luminescence of additional NLpoly variants (5A2 background) after complementation with NLpep53 (Example 31)
Details: E. coli lysate, NanoGlo reagent, 5 and 30 minutes

B1: Glu-11 (protein)
chain: MVFTLEDFVGDWEQTAAYNLDQVLEQGGVSSLFQNLAVSVTPIQRIVLSGENALKIDIHVIIPYEGLSADQMAQIEKIFKVVYPVDDHHFKVILHYGTLVIDGVTPNMIDYFGRPYEGIAVFDGKKITVTGTLWNGNKIIDERLINPDGSLLFRVTINV
With B1 the “Luminescence after complementation with NLpep-53 compared with parental 5A2” value was “significantly more luminescence than parental 5A2”.
